Data on 22 molecules can be found in publication PMC12136788.

T1: UNK ZnF1-3 (human, UniProt Q9C0B0 31-174)
T1 sequence: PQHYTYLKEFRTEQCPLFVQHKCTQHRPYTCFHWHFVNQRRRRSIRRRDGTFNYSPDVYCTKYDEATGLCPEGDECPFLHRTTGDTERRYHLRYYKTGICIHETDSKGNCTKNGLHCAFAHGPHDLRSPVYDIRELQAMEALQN

B1: chr2:198351390:198351391:-_ENSG00000144381_ENST00000345042|hu_hu|hu_hu_hu_mus_False|1_28 (ssRNA)
RNA: GGGAGUUCUACAGUCCGACGAUCUCAUUCCCACCCUCCACAGAAAGGCUGCUUCUGAACUCUCAUGUGGUGACACAGCGCUACAGUCCUGAUGCUCACAGAACAGUAGUAAAAAUGCAGUGAUUUAAGUUGAAAGCAGCAGUACAACAGAGGAUUGAGCAUCA
B2: chr6:83880054:83880055:+_ENSMUSG00000030016_ENSMUST00000032088|mus_hu|FALSE|FALSE (ssRNA)
RNA: GGGAGUUCUACAGUCCGACGAUCUAUUCUUGGAGAUGCUGCAUAAUAAUCAUUCAUCAUAGAAGGAGUUGGAAGUCUCUUCAUCUUCUGGGCAUCAGCAUGUGAAAACUUUGGUAGCCAGGAUGCUUUCACAAUACCAAAGGGCAACAGAGGAUUGAGCAUCA
B3: chrX:20248820:20248821:+_ENSMUSG00000001924_ENSMUST00000001989|mus_mus|mus_mus_mus_hu_True|98_98 (ssRNA)
RNA: GGGAGUUCUACAGUCCGACGAUCGGCGAAGUCCGUCAUCACAAAGUCAGGUUCUGCCAGUGAGGCCACCAAGGAUUUAAAGCUAAUCUUCUUAGGUACUUUGACCUGACUGACGAUGCCUCCACGGAUGUAGUCGGAGAAGUUCAACAGAGGAUUGAGCAUCA
B4: chr5:36837918:36837919:-_ENSMUSG00000029192_ENSMUST00000171385|mus_hu|FALSE|FALSE (ssRNA)
RNA: GGGAGUUCUACAGUCCGACGAUCGAACACGUCCCAGAUACGACAGGCCAGGUCGAGGGGCAGAGAUUUACUAUAUAAGGUAAAGAUCCAAUCAAUUAGGUAGAUAUCUGGAGUUAGGUUGUUCUUCUUGAAAUGCGCAAAUAACAACAGAGGAUUGAGCAUCA
B5: chr4:76721835:76721836:+_ENSG00000138768_ENST00000264904|hu_mus|hu_hu_hu_mus_True|58_88 (ssRNA)
RNA: GGGAGUUCUACAGUCCGACGAUCGUUUGGCUGGGGUUUCUGAGACGUCUGGAAUACUAACUCAUGUUUGCUAAUAAUCCUAGUUUCCUCUAUGAAAUUCUCUUUGCCAAUCCUCUUCUCUAUUAGUUGCUUUAGUUUCUCUUUCAACAGAGGAUUGAGCAUCA
B6: chr2:113333244:113333245:+_ENSG00000125630_ENST00000417433|hu_mus|motif|central (ssRNA)
RNA: GGGAGUUCUACAGUCCGACGAUCGGGAUCAAGUCAGAUGACAUCCAGUUUCACUUUGAUGUUCAUGGCUGCCAGCUCAGCGGCAAAGUACCGGAAGACAUACGGCACAGAGACGGUGUCGAUGGUGUCACUGCGGCCACAGACCAACAGAGGAUUGAGCAUCA
B7: chr9:78326885:78326886:-_ENSMUSG00000037742_ENSMUST00000042235|mus_mus|FALSE|FALSE (ssRNA)
RNA: GGGAGUUCUACAGUCCGACGAUCCAGCUUCUUACCAGAACGACGAUCGAUCUUUUCUUUAAGCUCAGCAAACUUGCAUGCUAUGUGGGCUGUGUGACAAUCCAGAACAGGAGCGUAGCCAGCACUGAUUUGGCCUGGAUGGUUCAACAGAGGAUUGAGCAUCA
B8: chr1:225700702:225700703:-_ENSG00000154380_ENST00000366843|hu_hu|FALSE|FALSE (ssRNA)
RNA: GGGAGUUCUACAGUCCGACGAUCACCAAUAGCAUUCCCUCCACUUGGGAAAGAGGUAUCCUCCAUCCGUGACACUUUCCUAAGUUUUGCUCCGGCAAUUGCAGCUGCAAGUCCAGUUAAAGGGCGAUUGUCUUCUGACAUGGACAACAGAGGAUUGAGCAUCA
B9: 17198978_17206553_600_3pUTR_ENSG00000003987_ENST00000180173|human|control|control (ssRNA)
RNA: GGGAGUUCUACAGUCCGACGAUCGGGGCUGGCUGCUCCGGCAGAUGGAGGCGUGGUUAUCUUUAUAAUAGUAAGAAAGGACAGGAAAUCGCCGUCUACUCCGGAAUUUGGAACUCCCCACUAUGAUGUGUGCCGUGGCCGAUUCAACAGAGGAUUGAGCAUCA
B10: chr2:74435765:74435766:+_ENSG00000065911_ENST00000470592|hu_hu|FALSE|FALSE (ssRNA)
RNA: GGGAGUUCUACAGUCCGACGAUCCCCCAUGGAGUAGCCGGUAACAUGGAAUACUGAUCCAAACACAUUCGUCCUACAUUAAUUACAUGAAAGCCAUCAACAUCCUUGUCUGGAGAAACAGCAUUGCAGAUCCUUCUCUCAUCACAACAGAGGAUUGAGCAUCA
B11: chr19:37063429:37063430:+_ENSMUSG00000040565_ENSMUST00000099494|mus_hu|FALSE|FALSE (ssRNA)
RNA: GGGAGUUCUACAGUCCGACGAUCCAUAGCAUCCCAGAGAUGUGGCAACUUCACUGCCAUUUCACCACCAAAAUGCUUUACUAUAGUUGUCAAAGCAAAUUCAGCUCCUCUCCGUUGUACCAGGUAAGGCUUCUGGGCCUCAUCCAACAGAGGAUUGAGCAUCA
B12: chr5:43656058:43656059:+_ENSG00000112992_ENST00000512996|hu_mus|motif|central (ssRNA)
RNA: GGGAGUUCUACAGUCCGACGAUCGUAAGCCACAAUCUUGGUGAAAUUUGACGUGGCAUCCAUUGCAAAAUGUGGAUACUCGGCGAUGUACUCGGCCAUGCAGGUAAGAACUGCUGCCAGCCCCACCAAACUGUGGAAAGCAGCCAACAGAGGAUUGAGCAUCA
B13: chr11:72491332:72491333:+_ENSMUSG00000020794_ENSMUST00000021148|perfect_dup|motif|central (ssRNA)
RNA: GGGAGUUCUACAGUCCGACGAUCAGCAUCUACAUUUGCAGGUGAGUCUCCAUUAGGAUCUGCCAGCAUAGAAAUGACACGGAUCAUGAUGGUUUCCACAGUAUGGAUAGGUAACCAGCGUUCCUCUGGCUUCUCAUAACCAUACAACAGAGGAUUGAGCAUCA
B14: chr16:46991118:46991119:-_ENSG00000069345_ENST00000563158|hu_hu|motif|central (ssRNA)
RNA: GGGAGUUCUACAGUCCGACGAUCUCCUCUGUUUCUCCAAUUAUGUUAGGAACUUCCGGUCUAGAUGGCAGAAGAUCUUCGGGUUCAGAAAGCUUGUCUGGGUUGAUCCAGUUGUUUUCAGGAAACUGCACAUCAAACUUUAUGCAACAGAGGAUUGAGCAUCA
B15: chr13:97419175:97419176:-_ENSMUSG00000021670_ENSMUST00000022176|mus_hu|FALSE|FALSE (ssRNA)
RNA: GGGAGUUCUACAGUCCGACGAUCGCUUUACGUACAACAGAAAAGGUAAAUCUUCCACAAUAACAAUGCAGACACAAUCACUAAGAGGCUCUCCAUGCUGCCAUGGUUUCCUGGAAUGUUUUUCAGAGUCCAUCUUCUACAAGACAACAGAGGAUUGAGCAUCA
B16: chr1:29344887:29344888:+_ENSG00000159023_ENST00000356093|perfect_dup|motif|central (ssRNA)
RNA: GGGAGUUCUACAGUCCGACGAUCUUCCAUGACCUUUUCUUCAAGUUCCUUGGUCUGAUUUGGAGCCAGUUUAAAAUCACGGACAUAAUCCAUGCCGUGCAGUUCUGGGUCAUAGUCUCCCAGCUCAGACUGGAUCGUGUAAGACAACAGAGGAUUGAGCAUCA
B17: chr17:13109412:13109413:+_ENSMUSG00000068039_ENSMUST00000151287|mus_mus|motif|central (ssRNA)
RNA: GGGAGUUCUACAGUCCGACGAUCGUGCUGCGGUCCCCGAACACGGACAAAGGACCCUCCAUCUUCAGGAAACGAAGCAAAGCUCACGGCGGCCGCAGACAACCGAUAGCUCCGCUCUGAGACCGUUUAACGGCCACCACGGCGCAACAGAGGAUUGAGCAUCA
B18: chr11:61589858:61589859:-_ENSMUSG00000004798_ENSMUST00000004920|mus_mus|FALSE|FALSE (ssRNA)
RNA: GGGAGUUCUACAGUCCGACGAUCCUAUUUUGAAGAUAAUGCAGUUACAAAUGAGAGGUAGAAACACUGUAGUAAAGACCUAAGAAUACAAACAUCCUAUACAUAAACGUUCAAAUUAACUGCUGGAAUUUCAUACAGAUAAAUCAACAGAGGAUUGAGCAUCA
B19: 98611824_98611944_5957_CDS_ENSMUSG00000028556_ENSMUST00000030286|mouse|control|control (ssRNA)
RNA: GGGAGUUCUACAGUCCGACGAUCUUUGUGAGUGACAUUGACUCUUGUUUUAAUGUAAGGAAAGGCAUGAGACGUUGUCAGAAUGGUCUUCCGUUUGAAUUGUUCAUGAAGCUCCCCAUGAGCACGGCCAUCUAAAGUGAAGGGCAACAGAGGAUUGAGCAUCA
B20: chr16:94664741:94664742:+_ENSMUSG00000040785_ENSMUST00000117648|mus_hu|mus_mus_mus_hu_False|58_78 (ssRNA)
RNA: GGGAGUUCUACAGUCCGACGAUCUGGUACUGAUCUUGGUAGCUGAUAUUCAGGAGAAAUGUUGGCCAAGGGUGUAUAAAUGCUAGUGUACUGGGGCAAACCUGGUAACACGUUUAUGUAUGCUGGCGGUGUCUGGGUGAUAUCCAACAGAGGAUUGAGCAUCA
B21: 168329706_168329826_1012_CDS_ENSMUSG00000040596_ENSMUST00000169324|mouse|control|control (ssRNA)
RNA: GGGAGUUCUACAGUCCGACGAUCCCUUCUCAUCAUUCUUCGACACCAGCCCAGACUUGCCUUGAACCCUUUCUCUGGAAUGUUCAUUUCCUGGGCGAUUUCAAGAGCUUUCAACUGCAUUGCCUCCCUAGUGAUAGGGUCCCCCAACAGAGGAUUGAGCAUCA
B22: 79948201_79948321_2510_3pUTR_ENSMUSG00000022415_ENSMUST00000009727|mouse|control|control (ssRNA)
RNA: GGGAGUUCUACAGUCCGACGAUCCUGCUCAAGAGGAGCUGCGGGGCUGCUUCUAGGCCUCUGACACCCUUGUCCCCUCCCUGACUCUUCCUCAGGCCCGUGCUCACGCAACGUUUCCCACCGUAAUGGACCCUGUGCCUGUAUCAACAGAGGAUUGAGCAUCA

This is one part of the list.

This test concerns the target T1, UNK ZnF1-3. The test can be described thus: nsRBNS (natural sequence RNA bind-n-seq); RBNS binding buffer (assumed for nsRBNS): 25 mM Tris pH 7.5, 150 mM KCl, 3 mM MgCl2, 0.01% Triton X-100, 500 ug/ml BSA, 20 U/ml SUPERase-In, 4 C; UNK is unkempt and MSI1 is Musashi-1; names of the RNAs are library labels; protein concentration not given here; high values mean tight binding.
The molecule B1 registered a binding signal of 1.39 enrichment R.
As for B2, the figure is 1.41 enrichment R.
The result for B3 reads 0.85 enrichment R.
For the molecule B4, the binding signal came out at 1.56 enrichment R.
B5: the binding signal came out at 0.35 enrichment R.
With B6, the binding signal stood at 1.25 enrichment R.
On to B7, for which the binding signal is 0.866 enrichment R.
Regarding B8, the binding signal stood at 0.815 enrichment R.
In turn, B9 registered a binding signal of 1.54 enrichment R.
For B10, the binding signal is 1.5 enrichment R.
With B11, the binding signal is 0.828 enrichment R.
In the case of B12, the binding signal amounted to 0.849 enrichment R.
In the case of B13, the binding signal was 1.16 enrichment R.
B14 displayed a binding signal of 0.878 enrichment R.
On to B15, for which the binding signal was 0.947 enrichment R.
B16 came in with a binding signal of 0.636 enrichment R.
B17 came in with a binding signal of 0.579 enrichment R.
The molecule B18 registered a binding signal of 1.25 enrichment R.
As for B19, the figure is 1 enrichment R; as for B20, 0.909 enrichment R.
For B21, the binding signal came to 0.852 enrichment R.
The molecule B22 gave a binding signal of 0.892 enrichment R.
